Data as given in PubChem BioAssay AID624417 (National Center for Advancing Translational Sciences (NCATS), 2012).
Out of some 410,000 compounds screened, about 6,400 (1.6%) were called active. Inconclusive means that the source gave no clear call. Such entries were picked first, then a sample of the others. The call rests on the fitted dose curve; in most records, active means well fitted inhibition curve with a large enough effect; inconclusive means small, poorly fitted or top-dose-only effect; inactive means no such curve, though single readings can be large or run the other way. Potencies of inconclusive entries are left out as doubtful fits.

These compounds were tested against Glucagon-like peptide 1 receptor (Homo sapiens) (UniProt P43220) (assay: qHTS of GLP-1 Receptor Inverse Agonists (Inhibition Mode)). Conditions: HEK293 GLP-1R CRE-luciferase, luminescence, 24 h, GLP-1R form is constitutively active; activity change, negative = inhibition: at 38.3 µM (top of the series) unless noted.
Procedure, shortened: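 qHTS in 1536-well format: reporter HEK293 cells expressing constitutive GLP-1R activity in DMEM + 10% Nu serum, 24 hr with compounds at 37 deg C, luminescence read after 12 min with detection reagent.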
Further: nearly all actives have a fitted effect of over 55% in size.
On the % scale 0 is the no-effect control and ±100 the full control effect; potency means the concentration at half of the fitted maximal effect; tags describe the fitted curve by direction and shape.

Chain of UniProt P43220 (P43220 whole entry, looked up): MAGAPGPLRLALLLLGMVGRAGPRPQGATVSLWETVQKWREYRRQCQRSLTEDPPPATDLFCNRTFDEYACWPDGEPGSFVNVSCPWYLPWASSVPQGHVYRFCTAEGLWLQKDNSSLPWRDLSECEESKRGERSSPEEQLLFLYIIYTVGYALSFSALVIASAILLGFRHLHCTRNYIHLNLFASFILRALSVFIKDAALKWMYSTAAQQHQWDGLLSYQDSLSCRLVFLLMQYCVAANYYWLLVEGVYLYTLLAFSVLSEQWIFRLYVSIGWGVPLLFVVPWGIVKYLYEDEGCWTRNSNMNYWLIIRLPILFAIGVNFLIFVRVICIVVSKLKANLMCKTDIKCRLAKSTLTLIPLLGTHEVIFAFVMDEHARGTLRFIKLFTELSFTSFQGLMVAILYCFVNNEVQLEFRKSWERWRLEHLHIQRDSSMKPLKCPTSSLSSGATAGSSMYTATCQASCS

Q: How did the Potency turn out when `CN(Cc1ccccc1)C(=O)CSc1nc(-c2ccc(F)cc2)cc(C(F)(F)F)n1` was run?
A: The Potency was inconclusive [inhibitor, partial curve, poor fit].

Q: With `Cc1[nH]c2ccccc2c1C(=O)C(C)OC(=O)c1ccc(NC(=O)CC#N)cc1` (stereo not given) as the compound, how does the Potency read?
A: The Potency was inconclusive [inhibitor, partial curve, poor fit].

Q: For `Cc1cccc(NC(=S)NCc2ccc3[nH]c4c(c3c2)CCCC4)c1`, which Potency is on record?
A: The Potency was inconclusive [inhibitor, partial curve, poor fit].

Q: For `Cc1ccc2nc(N(CCCN(C)C)C(=O)c3ccc(S(=O)(=O)N(C)C)cc3)sc2c1`, which “activity change, negative = inhibition” value is on record?
A: Its value is inactive: 0%.

Q: How did the “activity change, negative = inhibition” value turn out when `Cc1ccc(OCCCn2ccnc2)c([N+](=O)[O-])c1` was run?
A: The value was inactive: 37.8%.

Q: With `O=C(CN1C(=O)C(=O)N(Cc2ccccc2)C1=O)Nc1cc(Cl)cc(Cl)c1` as the compound, how does the Potency read?
A: Its Potency is inconclusive [inhibitor, single point].

Q: `c1ccc(Cc2noc(CN3CCN(CCOc4ccccc4)CC3)n2)cc1` was tested. Which Potency did it give?
A: Its Potency is inconclusive [inhibitor, partial curve, poor fit].

Q: Which Potency does the source give for `Cc1[nH]c2ccccc2c1SCC(=O)N1CCCc2ccccc21` here?
A: Its Potency is inconclusive [inhibitor, partial curve, poor fit].

Q: `O=C(N/N=C(\c1ccccc1)c1ccccn1)c1cccc([N+](=O)[O-])c1` was tested. Which Potency did it give?
A: The Potency was inconclusive [inhibitor, full curve, poor fit].

Q: With `O=C(c1ccc2c(=O)n(C3CCCC3)c(=S)[nH]c2c1)N1CCCCCC1` as the compound, how does the Potency read?
A: Its Potency is inconclusive [inhibitor, partial curve].

Q: Which Potency does the source give for `O=C(Cn1cc(SCc2c(F)cccc2Cl)c2ccccc21)N1CCCC1` here?
A: Its Potency is inconclusive [inhibitor, single point].

Q: For `Cc1cccc(NC(=O)CSc2nnc(CNC(=O)c3ccc(S(=O)(=O)N(C)C)cc3)n2-c2ccc(F)cc2)c1`, which Potency is on record?
A: The Potency was inconclusive [inhibitor, single point].

Q: Which Potency does the source give for `Cc1ccc(-c2noc(CCCOc3ccc(Cl)cc3Cl)n2)cc1` here?
A: Its Potency is inconclusive [inhibitor, single point].

Q: How did the Potency turn out when `CCc1nc2ccc(C(=O)NCc3ccc(OC)cc3)cn2c1N(C)CCC(C)C` was run?
A: Its Potency is inconclusive [inhibitor, single point].

Q: With `O=C(c1ccc(NC(=S)NCc2ccc(Cl)cc2)cc1)N1CCCCC1` as the compound, how does the Potency read?
A: Its Potency is inconclusive [inhibitor, partial curve, poor fit].

Q: How did the Potency turn out when `CCc1ccc(CN2CCCC(CCC(=O)N3CCN(c4ccccn4)CC3)C2)o1` (stereo not given) was run?
A: The Potency was inconclusive [inhibitor, full curve].

Q: With `COc1ccc(NC(=O)CN(C)CC(=O)Nc2cccc(C(F)(F)F)c2)cc1` as the compound, how does the Potency read?
A: The Potency was inconclusive [inhibitor, single point].

Q: With `Cc1cc(C(=O)OCc2nc3ccccc3s2)c(C)o1` as the compound, how does the Potency read?
A: Its Potency is inconclusive [inhibitor, single point].

Q: For `Nc1c(C(=O)NCCN2CCOCC2)c2nc3ccccc3nc2n1-c1ccccc1`, which “activity change, negative = inhibition” value is on record?
A: The value was inactive: -3.97%.

Q: For `CC(C)(C)C(C(=O)NCc1ccccc1)N1CCN(CCN2CCOCC2)CC1` (stereo not given), which “activity change, negative = inhibition” value is on record?
A: Its value is inactive: -6.14%.

Q: `O=C(CN(c1ccccc1)S(=O)(=O)c1ccccc1)NCCSCc1ccco1` was tested. Which Potency did it give?
A: Its Potency is inconclusive [inhibitor, partial curve, poor fit].

Q: For `CC1=NN(C(N)=S)C(=O)C1N=Nc1c(C)cc(C)cc1C` (stereo not given), which Potency is on record?
A: The Potency was inconclusive [inhibitor, full curve, poor fit].

Q: Which Potency does the source give for `Cc1ccc(S(=O)(=O)N2CCN(C(=O)C3CCCC3)CC2)cc1C` here?
A: The Potency was inconclusive [inhibitor, single point].

Q: `COc1cc(OC)cc(C(=O)Nc2ccc(C(=O)Nc3ccccc3OC)cc2)c1` was tested. Which Potency did it give?
A: Its Potency is inconclusive [inhibitor, partial curve, poor fit].

Q: `Cc1ccc(NC(=S)NC(=O)C2CCC2)cc1C` was tested. Which Potency did it give?
A: The Potency was inconclusive [inhibitor, partial curve, poor fit].

Q: Which Potency does the source give for `CCOC(=O)CCCCC1C(CCCC(=O)OCC)C=NN1C` (stereo not given) here?
A: The Potency was inconclusive [inhibitor, full curve, poor fit].

Q: `NNC(=O)c1cc(O)c(O)c(O)c1` was tested. Which Potency did it give?
A: Its Potency is inconclusive [inhibitor, single point].

Q: For `O=C(Nc1ccncc1)c1cc(-c2ccccn2)nc2ccccc12`, which Potency is on record?
A: Its Potency is inconclusive [inhibitor, partial curve, poor fit].

Q: For `C=CCNC(=S)Nc1ccc(N2CCOCC2)c(S(=O)(=O)Nc2ccccc2Cl)c1`, which Potency is on record?
A: The Potency was inconclusive [inhibitor, single point].

Q: For `CCOc1cccc(NC(=O)/C(C#N)=C\c2cccnc2)c1`, which Potency is on record?
A: The Potency was inconclusive [inhibitor, single point].

Q: Which “activity change, negative = inhibition” value does the source give for `Cn1cccc1C(=O)C(=O)Nc1ccccc1C(F)(F)F` here?
A: Its value is inactive: -10.2%.

Q: `Cc1cc(=O)oc2cc(OCCSCCN3CCCC3)ccc12` was tested. Which “activity change, negative = inhibition” value did it give?
A: The value was inactive: -7.01%.

Q: For `CC1(C(=O)NS(=O)(=O)c2ccc(Cl)cc2)CCN1C(=O)C1(c2ccc(Cl)cc2)CC1` (stereo not given), which Potency is on record?
A: Its Potency is inconclusive [inhibitor, single point].

Q: Which Potency does the source give for `Cc1cnc(CNC(=O)c2ccc3oc(Cc4ccc(Cl)cc4)nc3c2)cn1` here?
A: The Potency was inconclusive [inhibitor, single point].

Q: `COc1ccc(-n2cc(CNCC3CCOCC3)c(-c3cccc(F)c3)n2)cc1` was tested. Which Potency did it give?
A: The Potency was inconclusive [inhibitor, partial curve, poor fit].

Q: Which Potency does the source give for `Cc1cc(NCc2ccccn2)n2ncc(-c3ccc(Cl)cc3)c2n1` here?
A: The Potency was inconclusive [inhibitor, partial curve].

Q: Which Potency does the source give for `Nc1ccccc1SCc1ccccc1Cl` here?
A: The Potency was inconclusive [inhibitor, single point].

Q: Which Potency does the source give for `Cc1ccc(/C=C2/Sc3ccc(C(=O)N4CCN(C)CC4)cc3NC2=O)cc1` here?
A: The Potency was inconclusive [inhibitor, full curve, poor fit].

Q: For `CSCCC(c1nnnn1C(C)(C)C)N1CCN(C/C=C/c2ccccc2)CC1` (stereo not given), which “activity change, negative = inhibition” value is on record?
A: The value was inactive: -6.21%.

Q: `COC(=O)c1ccsc1NC(=O)CN1CCN(c2ccc(F)cc2)CC1` was tested. Which Potency did it give?
A: The Potency was inconclusive [inhibitor, single point].
